Assay results reported in article PMC5700166.
This is a selection; strong and weak results do not stand in their true shares. The list includes weakly bound sequences.

Key:
[1] = biological target: T1, GST-Dm-Relish (UniProt Q94527); experiment: protein-binding microarray (PBM); conditions: PBM: ~300 nM protein, 6 mM HEPES pH 7.8, 80 mM KCl, 0.5 mM EDTA, 0.5 mM EGTA, 6% glycerol, 35 ng/ul poly-dIdC, 1% milk, 1 h, room temperature; high values mean tight binding; double strand, one strand shown
T1 sequence: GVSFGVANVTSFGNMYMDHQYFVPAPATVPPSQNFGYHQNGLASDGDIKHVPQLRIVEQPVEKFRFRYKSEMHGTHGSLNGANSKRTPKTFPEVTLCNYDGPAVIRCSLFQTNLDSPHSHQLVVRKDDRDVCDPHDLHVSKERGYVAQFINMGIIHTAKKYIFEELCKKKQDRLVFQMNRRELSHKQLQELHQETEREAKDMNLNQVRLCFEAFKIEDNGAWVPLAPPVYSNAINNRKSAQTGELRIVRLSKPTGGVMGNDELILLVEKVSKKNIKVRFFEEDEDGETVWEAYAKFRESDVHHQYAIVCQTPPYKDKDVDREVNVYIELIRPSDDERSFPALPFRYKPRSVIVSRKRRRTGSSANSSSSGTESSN

[2] = biological target: T2, GST-Co-NF-kB (UniProt F1ARL5); experiment: protein-binding microarray (PBM); conditions: PBM: ~300 nM protein, 6 mM HEPES pH 7.8, 80 mM KCl, 0.5 mM EDTA, 0.5 mM EGTA, 6% glycerol, 35 ng/ul poly-dIdC, 1% milk, 1 h, room temperature; Ap Aiptasia and Nv Nematostella (sea anemones) / Co Capsaspora / Aq Amphimedon (sponge) / Dm Drosophila / Hu human; RHD is the Rel homology domain; high values mean tight binding; most listed sequences are background and not binding sites; double strand, one strand shown
T2 sequence: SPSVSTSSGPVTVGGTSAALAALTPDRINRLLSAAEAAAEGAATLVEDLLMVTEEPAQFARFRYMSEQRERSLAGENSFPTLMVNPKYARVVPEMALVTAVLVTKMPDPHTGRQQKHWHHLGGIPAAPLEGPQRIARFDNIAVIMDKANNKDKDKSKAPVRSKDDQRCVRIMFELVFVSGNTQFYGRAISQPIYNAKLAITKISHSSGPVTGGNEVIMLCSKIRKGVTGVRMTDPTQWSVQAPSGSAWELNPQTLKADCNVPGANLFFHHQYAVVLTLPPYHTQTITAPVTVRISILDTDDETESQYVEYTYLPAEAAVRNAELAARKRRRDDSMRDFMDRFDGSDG

Row | Sequence | binding signal [1] | binding signal [2]
1 | CCGATTAACATCATCAGTTTCCCTGATGTTAATCGGGTCTTGATTCGCTTGACGCTGCTG | -0.0647 z-score | 
2 | CCGATTAACATCATGGGGACGACTGATGTTAATCGGGTCTTGATTCGCTTGACGCTGCTG | 0.574 z-score | 2.39 z-score
3 | CCGATTAACATCATACAAGGGAGTGATGTTAATCGGGTCTTGATTCGCTTGACGCTGCTG | -0.038 z-score | 
4 | CCGATTAACATCAGGCAAACCCCTGATGTTAATCGGGTCTTGATTCGCTTGACGCTGCTG | 3.13 z-score | 
5 | CCGATTAACATCAGGGGTAAATATGATGTTAATCGGGTCTTGATTCGCTTGACGCTGCTG | 1.66 z-score | 
6 | CCGATTAACATCACGGGACATACTGATGTTAATCGGGTCTTGATTCGCTTGACGCTGCTG | 1.8 z-score | 0.882 z-score
7 | CCGATTAACATCAGGGGAAGAACTGATGTTAATCGGGTCTTGATTCGCTTGACGCTGCTG | 9.56 z-score | 6.9 z-score
8 | CCGATTAACATCAGGGAATGACCTGATGTTAATCGGGTCTTGATTCGCTTGACGCTGCTG | 3.4 z-score | 
9 | CCGATTAACATCAACTTTCCCAGTGATGTTAATCGGGTCTTGATTCGCTTGACGCTGCTG | 0.651 z-score | 
10 | CCGATTAACATCAGGGAACACCCTGATGTTAATCGGGTCTTGATTCGCTTGACGCTGCTG | 8.18 z-score | 
11 | CCGATTAACATCAAACATCCCCTTGATGTTAATCGGGTCTTGATTCGCTTGACGCTGCTG | 6.75 z-score | 
12 | CCGATTAACATCAACTCTCCCCCTGATGTTAATCGGGTCTTGATTCGCTTGACGCTGCTG | 2.14 z-score | 
13 | CCGATTAACATCAACTTCCCCCCTGATGTTAATCGGGTCTTGATTCGCTTGACGCTGCTG | 7.29 z-score | 
14 | CCGATTAACATCAGGGGTAGGTTTGATGTTAATCGGGTCTTGATTCGCTTGACGCTGCTG | 0.828 z-score | 
15 | CCGATTAACATCACCTTTTCCCCTGATGTTAATCGGGTCTTGATTCGCTTGACGCTGCTG | 2.77 z-score | 
16 | CCGATTAACATCACGGGATTCCCTGATGTTAATCGGGTCTTGATTCGCTTGACGCTGCTG | 10.2 z-score | 
17 | CCGATTAACATCAGAATAACCCCTGATGTTAATCGGGTCTTGATTCGCTTGACGCTGCTG | 3.29 z-score | 
18 | CCGATTAACATCAGAGTGGGAAATGATGTTAATCGGGTCTTGATTCGCTTGACGCTGCTG | 0.0591 z-score | 
19 | CCGATTAACATCAATCTACCCCCTGATGTTAATCGGGTCTTGATTCGCTTGACGCTGCTG | 2.3 z-score | 
20 | CCGATTAACATCAGGCTATTCCCTGATGTTAATCGGGTCTTGATTCGCTTGACGCTGCTG | 0.784 z-score | 
21 | CCGATTAACATCAAACACCCCCCTGATGTTAATCGGGTCTTGATTCGCTTGACGCTGCTG | 5.5 z-score | 
22 | CCGATTAACATCAGGACATCCCCTGATGTTAATCGGGTCTTGATTCGCTTGACGCTGCTG | 8.74 z-score | 
23 | CCGATTAACATCACGGGGAAATCTGATGTTAATCGGGTCTTGATTCGCTTGACGCTGCTG | 6.19 z-score | 10.1 z-score
24 | CCGATTAACATCAGGGATTTCTATGATGTTAATCGGGTCTTGATTCGCTTGACGCTGCTG | 5.1 z-score | 1.22 z-score
25 | CCGATTAACATCAAATTTTTCCCTGATGTTAATCGGGTCTTGATTCGCTTGACGCTGCTG | 2.35 z-score | 
26 | CCGATTAACATCAAATAGCCCCCTGATGTTAATCGGGTCTTGATTCGCTTGACGCTGCTG | 4.26 z-score | 
